# Results from the supplement of paper PMC8728848.
# Some of the results follow.
# B1: MpL2 (Macrolepiota procera) (protein)
# chain: MSTQVSSGQTYKITNVKAGTVIDLSGEDNKSIIGYPYHSGKNQQWTFNWTGKAWTLRSASSGSYLGIEGTPADGTRLVAVNDPFEWHIWRDEANENAFRIFVPFTNYNLRLSGYGDTTPGTPVQLWWTWEGLHQTWTIDRP
# Experiments:
# Assay in all cases: glycan array binding signal (z-score within array); higher = stronger binding
# Settings in all cases: glycan notation: IUPAC condensed, linker removed; mutation: D109R
# Neu5Ac(a2-8)Neu5Ac = biological target: Neu5Ac(a2-8)Neu5Ac
# Outline: (§1)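 Glycan array data came from 3228 arrays in the Consortium for Functional Glycomics database, and only arrays with an available protein sequence were kept. Glycan names were put into IUPAC-condensed notation, and columns mapping to the same glycan were averaged. The binding signal is a within-array Z-score, averaged across arrays of one protein sequence run at different concentrations or buffers and across linkers. A negative Z-score can be read as non-binding.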
# [1] = biological target: Neu5Ac(a2-8)Neu5Ac(a2-3)Gal(b1-3)GalNAc(b1-4)[Neu5Ac(a2-3)]Gal(b1-4)Glc
# Outline: as §1
# [2] = biological target: Neu5Ac(a2-8)Neu5Ac(a2-3)Gal(b1-3)GalNAc(b1-4)[Neu5Ac(a2-8)Neu5Ac(a2-3)]Gal(b1-4)Glc
# Outline: as §1
# [3] = biological target: Neu5Ac(a2-8)Neu5Ac(a2-3)Gal(b1-4)Glc
# Outline: as §1
# [4] = biological target: Neu5Ac(a2-8)Neu5Ac(a2-3)Gal(b1-4)GlcNAc
# Outline: as §1
# [5] = biological target: Neu5Ac(a2-8)Neu5Ac(a2-3)[Gal(b1-3)GalNAc(b1-4)]Gal(b1-4)Glc
# Outline: as §1
# [6] = biological target: Neu5Ac(a2-8)Neu5Ac(a2-3)[GalNAc(b1-4)]Gal(b1-4)Glc
# Outline: as §1
# [7] = biological target: Neu5Ac(a2-8)Neu5Ac(a2-8)Neu5Ac
# Outline: as §1
# [8] = biological target: Neu5Ac(a2-8)Neu5Ac(a2-8)Neu5Ac(a2-3)Gal(b1-4)Glc
# Outline: as §1
# [9] = biological target: Neu5Ac(a2-8)Neu5Ac(a2-8)Neu5Ac(a2-3)[Gal(b1-3)GalNAc(b1-4)]Gal(b1-4)Glc
# Outline: as §1
# [10] = biological target: Neu5Ac(a2-8)Neu5Ac(a2-8)Neu5Ac(a2-3)[GalNAc(b1-4)]Gal(b1-4)Glc
# Outline: as §1
# [11] = biological target: Neu5Ac(a2-8)Neu5Ac(a2-8)Neu5Ac(a2-8)Neu5Ac(a2-3)[GalNAc(b1-4)]Gal(b1-4)Glc
# Outline: as §1
# [12] = biological target: Neu5Ac(a2-8)Neu5Gc(a2-3)Gal(b1-4)GlcNAc
# Outline: as §1
# [13] = biological target: Neu5Ac(b2-6)Gal(b1-4)GlcNAc
# Outline: as §1
# Neu5Ac(b2-6)GalNAc = biological target: Neu5Ac(b2-6)GalNAc
# Outline: as §1
# [14] = biological target: Neu5Ac9Ac(a2-3)Gal(b1-3)GlcNAc
# Outline: as §1
# [15] = biological target: Neu5Ac9Ac(a2-3)Gal(b1-4)GlcNAc
# Outline: as §1
# [16] = biological target: Neu5Ac9Ac(a2-6)Gal(b1-4)GlcNAc
# Outline: as §1
# [17] = biological target: Neu5Gc(a2-3)Gal(b1-3)GlcNAc
# Outline: as §1
# [18] = biological target: Neu5Gc(a2-3)Gal(b1-3)[Fuc(a1-4)]GlcNAc
# Outline: as §1
# Neu5Gc(a2-3)Gal(b1-4)Glc = biological target: Neu5Gc(a2-3)Gal(b1-4)Glc
# Outline: as §1
# [19] = biological target: Neu5Gc(a2-3)Gal(b1-4)GlcNAc
# Outline: as §1
# [20] = biological target: Neu5Gc(a2-3)Gal(b1-4)GlcNAc(b1-3)Gal(b1-4)GlcNAc(b1-2)Man(a1-3)[Neu5Gc(a2-3)Gal(b1-4)GlcNAc(b1-3)Gal(b1-4)GlcNAc(b1-2)Man(a1-6)]Man(b1-4)GlcNAc(b1-4)GlcNAc
# Outline: as §1
# [21] = biological target: Neu5Gc(a2-3)Gal(b1-4)[Fuc(a1-3)]GlcNAc
# Outline: as §1
# [22] = biological target: Neu5Gc(a2-6)Gal(b1-4)GlcNAc
# Outline: as §1
# Neu5Gc(a2-6)GalNAc = biological target: Neu5Gc(a2-6)GalNAc
# Outline: as §1
# [23] = biological target: Neu5Gc(a2-8)Neu5Ac(a2-3)Gal(b1-4)GlcNAc
# Outline: as §1
# [24] = biological target: Neu5Gc(a2-8)Neu5Gc(a2-3)Gal(b1-4)GlcNAc
# Outline: as §1
# [25] = biological target: Neu5Gc(a2-8)Neu5Gc(a2-3)Gal(b1-4)GlcNAc(b1-3)Gal(b1-4)GlcNAc
# Outline: as §1
# [26] = biological target: Neu5Gc(a2-8)Neu5Gc(a2-6)Gal(b1-4)GlcNAc
# Outline: as §1
# [27] = biological target: Neu5Gc(b2-6)Gal(b1-4)GlcNAc
# Outline: as §1
binder,measurement,setting,value
B1,glycan array binding signal (z-score),Neu5Ac(a2-8)Neu5Ac,-0.256
same,glycan array binding signal (z-score),[1],-0.26
same,glycan array binding signal (z-score),[2],-0.131
same,glycan array binding signal (z-score),[3],-0.256
same,glycan array binding signal (z-score),[4],-0.318
same,glycan array binding signal (z-score),[5],-0.26
same,glycan array binding signal (z-score),[6],-0.268
same,glycan array binding signal (z-score),[7],-0.264
same,glycan array binding signal (z-score),[8],-0.272
same,glycan array binding signal (z-score),[9],-0.19
same,glycan array binding signal (z-score),[10],-0.234
same,glycan array binding signal (z-score),[11],-0.261
same,glycan array binding signal (z-score),[12],-0.299
same,glycan array binding signal (z-score),[13],-0.254
same,glycan array binding signal (z-score),Neu5Ac(b2-6)GalNAc,-0.265
same,glycan array binding signal (z-score),[14],-0.279
same,glycan array binding signal (z-score),[15],-0.202
same,glycan array binding signal (z-score),[16],-0.27
same,glycan array binding signal (z-score),[17],-0.259
same,glycan array binding signal (z-score),[18],-0.256
same,glycan array binding signal (z-score),Neu5Gc(a2-3)Gal(b1-4)Glc,-0.353
same,glycan array binding signal (z-score),[19],-0.272
same,glycan array binding signal (z-score),[20],-0.268
same,glycan array binding signal (z-score),[21],-0.275
same,glycan array binding signal (z-score),[22],-0.25
same,glycan array binding signal (z-score),Neu5Gc(a2-6)GalNAc,-0.288
same,glycan array binding signal (z-score),[23],-0.27
same,glycan array binding signal (z-score),[24],-0.26
same,glycan array binding signal (z-score),[25],-0.31
same,glycan array binding signal (z-score),[26],-0.27
same,glycan array binding signal (z-score),[27],-0.266
